Reference: article PMC3521654, “The Nuclear Chaperone Nucleophosmin Escorts an Epstein-Barr Virus Nuclear Antigen to Establish Transcriptional Cascades for Latent Infection in Human B Cells” (PLoS Pathogens, 2012)
Results are given in words; binding and its absence hold for the method and conditions named. In cells and extracts the contact can be indirect. Some binding calls cover weakened binding; strength is not graded here. Blank lines part the entries; values can stand above or below the substance they belong to.

Chains of the proteins cited; added tags and fusions are not shown. Lines headed by an entry give the natural chain unless they say otherwise; changes in a name come on top. A line that says so, or that is headed by a name, gives the form on record, which may keep a tag or linker.
UniProt Q06330: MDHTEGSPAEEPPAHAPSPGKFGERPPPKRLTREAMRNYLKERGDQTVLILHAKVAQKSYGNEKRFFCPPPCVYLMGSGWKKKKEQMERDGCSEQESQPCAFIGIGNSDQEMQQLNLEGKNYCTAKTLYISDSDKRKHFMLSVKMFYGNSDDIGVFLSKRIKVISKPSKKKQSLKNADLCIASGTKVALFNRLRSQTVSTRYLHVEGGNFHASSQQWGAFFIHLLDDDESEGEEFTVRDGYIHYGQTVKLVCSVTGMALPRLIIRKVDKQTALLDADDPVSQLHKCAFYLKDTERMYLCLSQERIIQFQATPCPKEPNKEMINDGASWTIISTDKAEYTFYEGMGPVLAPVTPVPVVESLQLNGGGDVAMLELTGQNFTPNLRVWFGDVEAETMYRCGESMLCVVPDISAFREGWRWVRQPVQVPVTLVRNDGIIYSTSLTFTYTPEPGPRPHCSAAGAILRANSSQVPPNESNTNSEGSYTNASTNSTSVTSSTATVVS
UniProt P06748: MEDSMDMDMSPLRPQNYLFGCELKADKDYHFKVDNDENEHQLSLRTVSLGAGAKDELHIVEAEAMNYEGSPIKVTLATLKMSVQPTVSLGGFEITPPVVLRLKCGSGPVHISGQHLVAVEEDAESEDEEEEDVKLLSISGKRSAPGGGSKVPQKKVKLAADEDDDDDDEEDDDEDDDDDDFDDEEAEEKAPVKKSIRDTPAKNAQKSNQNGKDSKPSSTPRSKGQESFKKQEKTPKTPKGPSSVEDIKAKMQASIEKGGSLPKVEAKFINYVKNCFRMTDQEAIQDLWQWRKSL
flag-tagged NPM1 ATP-binding mutant K_(257/263)R (P06748, form named): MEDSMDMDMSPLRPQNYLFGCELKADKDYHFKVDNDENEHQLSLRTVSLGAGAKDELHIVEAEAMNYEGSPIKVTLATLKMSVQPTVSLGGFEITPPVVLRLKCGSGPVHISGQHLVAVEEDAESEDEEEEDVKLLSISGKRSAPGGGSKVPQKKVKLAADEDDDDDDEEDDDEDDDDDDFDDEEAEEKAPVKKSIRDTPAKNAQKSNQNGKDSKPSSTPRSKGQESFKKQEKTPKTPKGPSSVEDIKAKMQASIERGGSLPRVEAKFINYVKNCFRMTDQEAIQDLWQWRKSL

Experiments:
[1] = target: GST-E2 300–360 (Epstein-Barr virus) (UniProt P12978); assay: pull-down; GST-E2 300–360 as bait, lysates of BJAB cells (10^7) transfected with 30 µg of flag-tagged NPM1 vectors, 24 hours after transfection; immunoblot with M2 antibody; only the target purified
[2] = target: GST-E2 300–432 (Epstein-Barr virus) (UniProt P12978); assay: pull-down; only the target purified
[3] = target: GST-E2 300–335 (Epstein-Barr virus) (UniProt P12978); assay: pull-down; only the target purified
[4] = target: GST-E2 360–432 (Epstein-Barr virus) (UniProt P12978); assay: pull-down; only the target purified
[5] = target: GST-E2 335–360 (Epstein-Barr virus) (UniProt P12978); assay: pull-down; only the target purified
[6] = target: RBP-Jκ, endogenous (human (endogenous in BJAB-E2, BJAB and IB4)) (UniProt Q06330); assay: co-IP
[7] = target: GST-E2 300–360 (Epstein-Barr virus) (UniProt P12978); assay: pull-down; only the target purified
[8] = target: flag-tagged wild type NPM1 (FNPM1) (UniProt P06748); assay: co-IP
[9] = target: EBNA2 from the transfected expression vector (pSG5-EBNA2, E2) (Epstein-Barr virus) (UniProt P12978); assay: co-IP; cells co-transfected with EBNA2 and FNPM1 or ATP-binding mutants (methods: 293T, 3 µg each); Western blot; which protein was precipitated is not told

Substance: flag-tagged NPM1 point mutant L102A (from UniProt P06748 1-294)
- binding [1]: no binding

Substance: nucleophosmin (NPM1), endogenous (from UniProt P06748 1-294)
- binding [2]: binds
- binding [3]: no binding
- binding [4]: no binding
- binding [5]: no binding
- binding [6]: binds

Substance: flag-tagged NPM1 truncated deletion mutant N1 (120–294) (from UniProt P06748 120-294) (domain or fragment)
- binding [7]: no binding

Substance: flag-tagged NPM1 truncated deletion mutant N2 (194–294) (from UniProt P06748 194-294) (domain or fragment)
- binding [7]: no binding

Substance: flag-tagged NPM1 point mutant S106A (from UniProt P06748 1-294)
- binding [1]: no binding

- binding [8]: binds
Substance: RBP-Jκ, endogenous (from UniProt Q06330 1-500)

Substance: flag-tagged NPM1 ATP-binding mutant K263R (from UniProt P06748 1-294)
- binding [9]: no binding

Substance: flag-tagged NPM1 point mutant G105A (from UniProt P06748 1-294)
- binding [1]: no binding

Substance: flag-tagged wild type NPM1 (FNPM1) (from UniProt P06748 1-294)
- binding [9]: binds

Substance: flag-tagged NPM1 ATP-binding mutant K_(257/263)R (from UniProt P06748 1-294)
- binding [9]: no binding
